PubChem BioAssay AID624417 (National Center for Advancing Translational Sciences (NCATS), 2012)
Several values for one entry are separate records, joined by “and”; a condition that tells them apart may be missing. Equal entries are not always repeated. Hit rate of the full screen: of about 410,000 compounds, about 6,400 (1.6%) were called active. This list was built around the results that the source calls inconclusive (neither active nor inactive); the mix of calls is not that of the screen. The call rests on the fitted dose curve; in most records, active means well fitted inhibition curve with a large enough effect; inconclusive means small, poorly fitted or top-dose-only effect; inactive means no such curve, though single readings can be large or run the other way. Potencies of inconclusive entries are doubtful fits and often do not repeat.

Target: Glucagon-like peptide 1 receptor (Homo sapiens) (UniProt P43220)
UniProt P43220, sequence (P43220 whole entry, looked up): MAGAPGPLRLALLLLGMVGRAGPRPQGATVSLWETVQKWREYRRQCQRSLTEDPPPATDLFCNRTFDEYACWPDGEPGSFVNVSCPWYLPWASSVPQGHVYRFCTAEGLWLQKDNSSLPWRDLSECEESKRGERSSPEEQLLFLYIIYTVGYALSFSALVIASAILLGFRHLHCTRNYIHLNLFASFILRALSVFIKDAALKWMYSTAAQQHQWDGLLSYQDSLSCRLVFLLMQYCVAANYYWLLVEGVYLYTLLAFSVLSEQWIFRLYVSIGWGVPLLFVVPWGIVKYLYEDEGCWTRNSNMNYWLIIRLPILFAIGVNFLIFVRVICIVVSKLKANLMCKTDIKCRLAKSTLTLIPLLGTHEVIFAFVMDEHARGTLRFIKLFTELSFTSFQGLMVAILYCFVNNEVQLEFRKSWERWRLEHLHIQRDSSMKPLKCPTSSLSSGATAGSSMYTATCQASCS
Assay: qHTS of GLP-1 Receptor Inverse Agonists (Inhibition Mode); further: nearly all actives have a fitted effect of over 55% in size
Conditions: HEK293 GLP-1R CRE-luciferase, luminescence, 24 h, GLP-1R form is constitutively active; series mostly up to 38.3 µM
Outline: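 Cells are plated, allowed 12 hours at 37 deg C, then treated with compounds for 24 hr before luciferase detection reagent is added and luminescence is read after 12 min at room temperature. The HEK293 line carries constitutively active GLP-1R with a cAMP-responsive reporter.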
Potency means the concentration at half of the fitted maximal effect; tags describe the fitted curve by direction and shape.

Potency, inconclusive:
CCCNC(=O)C1(C)CCCN(Cc2cccc(C#N)c2)C1 (stereo not drawn) 28.2 µM [inhibitor, single point], CC(C)CNc1nc2c(c(=O)n(C)c(=O)n2C)n1Cc1cccc(Br)c1 8.91 µM [inhibitor, partial curve, poor fit], COc1ccc(NS(=O)(=O)c2cccc(C(=O)NCC(c3ccc(OC)cc3)N3CCCC3)c2)cc1 (stereo not drawn) 10 µM [inhibitor, single point], Cc1ccc(CSC2=Nc3ccccc3C3=NC(CC(=O)NCc4cccs4)C(=O)N23)cc1 (stereo not drawn) 31.6 µM [inhibitor, single point], CCCCN(CCCNC(=O)CN1C(=O)COc2ccccc21)c1ccccc1 11.2 µM [inhibitor, single point], COc1ccc([C@H]2CC(=O)C=C(c3cc4ccccc4c4ccccc34)C2)cc1 28.2 µM [inhibitor, single point], CCCCCCCCN1[C@@H](CC(=O)OC)c2cc(F)ccc2S1(=O)=O 12.6 µM [inhibitor, single point], CCCCCCSC1=C(C#N)C(c2ccc(C)o2)CC(=O)N1 (stereo not drawn) 28.2 µM [inhibitor, single point], O=C(NNC(=O)C1CCN(S(=O)(=O)c2ccc(Cl)cc2)CC1)c1ccncc1 17.8 µM [inhibitor, single point], O=[N+]([O-])c1ccc2nc(NN=Cc3ccc(O)cc3)sc2c1 31.6 µM [inhibitor, single point], CCOc1ccc(NC(=O)Nc2cc(-c3ccccc3)sc2C(=O)OC)cc1 2.24 µM [inhibitor, partial curve, poor fit], CCCCCCCNC(=O)C1(CC2CC(c3cccc(Br)c3)=NO2)CCN(C(=O)c2ccccc2)CC1 (stereo not drawn) 20 µM [inhibitor, partial curve, poor fit], CCN1CCN(c2cc(C(C)(C)C)nc3c(-c4ccccc4)c(C)nn23)CC1 2.82 µM [inhibitor, full curve, poor fit], CC(C)=CCN1CCN(Cc2nc(-c3ccc(F)cc3)cs2)CC1CCO (stereo not drawn) 28.2 µM [inhibitor, single point], O=C1c2ccccc2C(Nc2ccc3c(c2)OCO3)N1Cc1ccco1 (stereo not drawn) 11.2 µM [inhibitor, single point], CCCCCCN(C(=O)CCl)c1ccccc1 10 µM [inhibitor, partial curve, poor fit], Cc1ccc(S(=O)(=O)N2C[C@H]3N(C(=O)OC(C)C)N(C(=O)OC(C)C)C[C@H](OC(=O)Nc4cccs4)[C@@]3(O)C2)cc1 11.2 µM [inhibitor, partial curve, poor fit], CCCCN1C(=O)C2Cc3c([nH]c4ccccc34)CN2C1=S (stereo not drawn) 28.2 µM [inhibitor, single point], CCc1nnc(NC(=O)CSc2nccn2-c2cccc(C)c2C)s1 2.51 µM [inhibitor, full curve, poor fit], CCCCC/C=C/C1=CC(=O)C[C@H](c2ccc(Cl)cc2)C1 31.6 µM [inhibitor, single point], CC(c1nc2ccccc2c(=O)[nH]1)N1CCCN(S(=O)(=O)c2ccc(F)cc2)CC1 (stereo not drawn) 12.6 µM [inhibitor, single point], Cc1cc(N2CCN(C)CC2)ccc1NC(=O)c1c2c(nc3ccccc13)CCN(Cc1ccccc1)C2 28.2 µM [inhibitor, single point], CCOC(=O)c1c(CC(C)C)csc1/N=C/C1C(=O)CCCC1=O 12.6 µM [inhibitor, single point], CCOC(=O)N/N=C\c1ccc(OC/C=C/c2ccccc2)c(OC)c1 10 µM [inhibitor, single point], O=C(NCCc1ccc(Cl)cc1)c1ccc2c(c1)N(Cc1ccccc1F)C(=O)c1ccccc1S2(=O)=O 5.62 µM [inhibitor, partial curve, poor fit], CN(CC(=O)Nc1c(Cl)cccc1Cl)C(=O)c1ccccc1-c1nc2ccccc2s1 11.2 µM [inhibitor, partial curve, poor fit], COc1ccc(CCNCC(O)COc2c(C)cccc2C)cc1OC (stereo not drawn) 12.6 µM [inhibitor, single point], CC1(C)CC(NC(=O)COc2ccc(Cl)cc2Cl)CC(C)(C)N1 10 µM [inhibitor, partial curve, poor fit], COc1ccccc1C(=O)NC(CCSC)C(=O)N1CCN(C/C=C/c2ccccc2)CC1 (stereo not drawn) 14.1 µM [inhibitor, single point], COc1ccc(/C=C2\CCc3ccccc3C2=O)c(OC)c1OC 28.2 µM [inhibitor, single point], O=C(Cc1cccs1)Nc1cc(S(=O)(=O)N2CCCCC2)ccc1Cl 28.2 µM [inhibitor, single point], Cc1nc2ccn(Cc3ccccc3)c(=O)c2cc1C(=O)NCc1ccccc1F 0.355 µM [inhibitor, full curve, poor fit], CCN(CC)c1ccc(/C=N/NC(=O)c2c(Cl)cnn2C)c(O)c1 1.26 µM [inhibitor, partial curve, poor fit], O=C(CCCn1ccc2cc(S(=O)(=O)N3CCCC3)ccc21)NCc1ccc(Cl)cc1 8.91 µM [inhibitor, partial curve, poor fit], COCOc1cc(O)c(C(=O)/C=C/c2ccccc2)c(OCOC)c1 11.2 µM [inhibitor, partial curve, poor fit], COc1cc(NC(=S)NC(C)(C)C)c(OC)cc1Cl 11.2 µM [inhibitor, single point], N=c1n(CCO)c2ccccc2n1CCOc1ccc(Cl)cc1Cl 10 µM [inhibitor, partial curve, poor fit], CCn1c2ccccc2c2cc(/C=N/NC(=O)c3ccc(O)cc3)ccc21 1 µM [inhibitor, full curve, poor fit], CC1Cc2ccccc2N1C(=O)Cn1c(=O)oc2cc(S(=O)(=O)N3CCCCC3)ccc21 (stereo not drawn) 8.91 µM [inhibitor, partial curve, poor fit], Cc1ccccc1NC(=O)c1c(NC(=O)C(F)(F)F)sc2c1CCCCC2 0.316 µM [inhibitor, full curve, poor fit], COc1ccc(NC(=O)C2Cc3c(-c4ccccc4)ccnc3O2)cc1OC (stereo not drawn) 28.2 µM [inhibitor, single point], CC(C(O)c1ccc(O)cc1)N1CCC(Cc2ccccc2)CC1 (stereo not drawn) 2.24 µM [inhibitor, full curve] and 7.94 µM [inhibitor, partial curve, poor fit] and 12.6 µM [inhibitor, partial curve, poor fit], CC(C)CN=c1cc(-c2ccccc2)oc2ccc(Cl)cc12 28.2 µM [inhibitor, single point], CCN1CCN(c2cc(C)c3cc(NC(=S)N4CCN(c5ccc(F)cc5)CC4)ccc3n2)CC1 1.26 µM [inhibitor, full curve, poor fit], O=C1NN(c2cccc(Br)c2)C(=O)/C1=C\c1ccccc1 2 µM [inhibitor, full curve, poor fit], O=S(=O)(c1ccc(Cl)c(C(F)(F)F)c1)N1CCN(CC(O)COc2ccccc2F)CC1 (stereo not drawn) 10 µM [inhibitor, partial curve, poor fit]

Potency, inactive:
Cc1ccc(CNC(=O)c2cc3c(s2)-c2ccc(Cl)cc2SC3)cc1, CCCN(CC(=O)Nc1ccccc1OC)C(=O)CN1C(=O)NC2(CCCCC2)C1=O, CCOC(=O)c1cnc(-c2ccccc2)nc1N1CCOCC1, COc1ccccc1-c1cc2nc(C)cc(C)n2n1, O=c1cc(-c2ccccc2)oc2ccccc12, CC(C)Oc1cccc(C(=O)NC(=S)Nc2cccnc2)c1, COC(=O)/C(=C\c1ccc([N+](=O)[O-])o1)NC(=O)c1ccccc1, Cc1onc(-c2ccccc2)c1C(=O)NCc1cccnc1, COCCCn1c(CCC(=O)O)ccc1-c1cccs1, O=S1(=O)CC(N2CCSCC2)CN1Cc1cn(Cc2cccc(Cl)c2)nn1 (stereo not drawn), CC1CC(=O)N(CC(=O)Nc2ccc(F)cc2F)c2ccccc2S1 (stereo not drawn), Oc1cccc(/C=N/c2c(-c3ccco3)nc3ccccn23)c1, CCn1cc(C2C(C(=O)Nc3cc(C)ccn3)=C(C)NC3=C2C(=O)CC(C)(C)C3)c(C)n1 (stereo not drawn), NC(=O)c1sc2nc(-c3ccco3)ccc2c1N, Cc1cc(C)cc(N(CC(=O)NC2CCCCC2)C(=O)c2ccc(C)s2)c1, Cc1ccc2[nH]c(=O)c(C(c3nnnn3CC3CCCO3)N3CCOCC3)cc2c1 (stereo not drawn), COc1cc(NC(=O)c2nn(-c3ccc(F)cc3)c(=O)n(C)c2=O)cc(OC)c1OC
